Test results from US7589065.

Experiments:
Ala-Leu = system: T1, Ala-Leu
T1 sequence: AL

Suc-Ala-Phe-Pro-Phe-NHNp = system: T2, Suc-Ala-Phe-Pro-Phe-NHNp
T2 sequence: AFPF

Ala-Ala-Tyr-Ala-Ala = system: T3, Ala-Ala-Tyr-Ala-Ala
T3 sequence: AAYAA

In the case of DnaK (letters omitted), the “rate constant (kobs) of the cis/trans isomerisation of Ala-Leu with 624 nM DnaK (non-catalysed reaction: 0.36 s^-1)” value (Ala-Leu) is reported as “the catalysed reaction in a constant of 0.55 s^-1”, the “peptidyl-prolyl cis/trans isomerisation rate by isomer-specific proteolysis (chymotrypsin)” value (Suc-Ala-Phe-Pro-Phe-NHNp) is reported as “DnaK did not show a visible influence on the cis/trans isomerisation rate of the substrate” and the “broadening of 2D 1H NMR exchange cross signals with 20 µM DnaK” value (Ala-Ala-Tyr-Ala-Ala) is reported as “it is mainly the cross signal corresponding to the Ala-Tyr peptide bond that broadens under the influence of catalytic amounts of DnaK”. For the same substance, the relative intensity of the cross signal of the Ala-Tyr peptide bond (no addition: 3.50 ± 0.51) (relative intensity) (Ala-Ala-Tyr-Ala-Ala) was 6.37 and the relative intensity of the cross signal of the Tyr-Ala peptide bond (no addition: 3.89 ± 0.32) (relative intensity) (Ala-Ala-Tyr-Ala-Ala) was 3.39.
